“And” between values parts separate entries of the source, which are not always exact repeats. Identical values can stand only once. The inconclusive results got no clear call from the source; some entries with a clear call stand among them for comparison. Potencies of inconclusive entries are doubtful fits and often do not repeat. More than one record can exist for a structure, and the calls need not agree. The source made the active and inactive calls. Unless noted, calls come from the whole dose curve; as a rule, active = well fitted curve in the direction sought with a large enough effect in the repeat runs; inconclusive = weak or mixed curves; inactive = no such curve, though single readings can be large; an effect the other way counts as inactive or inconclusive.
Experiments:
[1] = qHTS assay to identify small molecule agonists of the retinoic acid receptor (RAR) signaling pathway (AID 1159553); settings: C3RL4 RARE luciferase reporter, agonist, 6 h; activation: at 73.3 µM (top of the series) unless noted; for activation: % is set by controls: 0 for no effect and ±100 for the full control effect
Summary of the method: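 6 hr compound exposure (DMSO vehicle) of overnight-plated C3RL4 RARE-luc cells at 37 C; luminescence quantified after 30 min RT with luciferase reagent.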

[2] = qHTS assay to identify small molecule agonists of the hypoxia (HIF-1) signaling pathway - cell viability counter screen (AID 1224844; calls by dose curve; note: nearly all actives have a fitted effect of over 50% in size)
Summary of the method: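 HRE-bla ME-180; 0.5% dFBS; cpd 17 h, 37C, 5% CO2; CellTiter-Glo lum., 30 min RT, post-FRET read, same wells.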

[3] = qHTS assay to identify small molecule agonists of the constitutive androstane receptor (CAR) signaling pathway - cell viability counter screen (AID 1224836); note: nearly all actives have a fitted effect of over 45% in size
Summary of the method: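 Double-stable HepG2 hepatoma cells (hCAR plus CYP2B6-2.2kb) are treated for 23 h at 37 C with test compounds in 15-point concentration series. PK11195 at 0.75 uM final is co-added. Cell viability is quantified by CellTiter-Fluor.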

[4] = qHTS assay to identify small molecule antagonists of the estrogen related receptor signaling pathway with the pleiotropic PPARgamma coactivator (PGC) from Tox21 10K library (AID 1224841; call rule not given here; note: actives are mostly falling curves and most rising ones were filed inactive; nearly all actives have a fitted effect of over 50% in size)
Summary of the method: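 Test chemicals dissolved in DMSO were applied to pre-incubated (6 h) PGC/ERR cells at 2,000 cells/well for an 18 h, 37 C treatment; reporter luminescence was then read using One-Glo.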

[5] = qHTS assay to identify small molecule antagonists of the estrogen related receptor signaling pathway with the pleiotropic PPARgamma coactivator (PGC) from Tox21 10K library - cell viability counter screen (AID 1224840; active = well fitted cell-killing curve with a large enough effect in the repeat runs, not every such curve was filed as active; inconclusive = weak or mixed curves, or effect the other way; inactive = no such curve, though single readings can be large or run the other way; note: nearly all actives have a fitted effect of over 40% in size)
Summary of the method: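 Seeded PGC/ERR cells (2,000/well, 6 h, 37 C/5% CO2) get compound by pin tool; 17.5 h incubation at 37 C; CellTiter-Fluor added, 30 min, fluorescence measured.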

[6] = qHTS assay to identify small molecule antagonists of the estrogen related receptor signaling pathway with the pleiotropic PPARgamma coactivator (PGC) cell viability counter screen (AID 1224822)
Summary of the method: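 Counter screen for cell viability: PGC/ERR cells, 6 h pre-incubation after plating, 17.5 h compound exposure at 37 C, fluorescence from CellTiter-Fluor after 30 min.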

[7] = qHTS assay to identify small molecule antagonists of the estrogen related receptor (ERR) signaling pathway from Tox21 library - cell viability counter screen (AID 1224834); note: nearly all actives have a fitted effect of over 30% in size
Summary of the method: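 Seeded ERR cells were rested 6 h at 37 C/5% CO2 before compounds, positive and negative controls or DMSO were added. Incubation continued for 17.5 h, and viability was then quantified by CellTiter-Fluor fluorescence.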

[8] = qHTS assay to identify small molecule antagonists of the constitutive androstane receptor (CAR) signaling pathway - cell viability counter screen (AID 1224837); note: nearly all actives have a fitted effect of over 45% in size
Summary of the method: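 To flag cytotoxic false antagonists, HepG2 hCAR/CYP2B6-2.2kb cells were treated 23 hr with 15-concentration compound series and 50 nM CITCO at 37 C/5% CO2; CellTiter-Fluor fluorescence was the measured end point.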

[9] = molecular target: Thyrotropin receptor (Homo sapiens) (UniProt P16473); experiment: qHTS assay to identify small molecule agonists of the thyroid stimulating hormone receptor (TSHR) signaling pathway (AID 1224843; calls by dose curve; note: nearly all actives have a fitted effect of over 45% in size; for activation: % is set by controls: 0 for no effect and ±100 for the full control effect); settings: TSHR-HEK293 cells, cAMP HTRF, agonist mode, 30 min; activation: at 92.4 µM (top of the series) unless noted
Summary of the method: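 Using 15 concentrations per compound in triplicate, cAMP production was monitored in TSHR-HEK293 cells after 30 min compound incubation at RT; HTRF reagents followed, with fluorescence intensity recorded after 1 h.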

[10] = qHTS assay to identify small molecule antagonists of the estrogen related receptor (ERR) signaling pathway - cell viability counter screen (AID 1224818)
Summary of the method: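 Compounds dissolved in DMSO were applied to ERR cells seeded at 2,000 per well 6 h earlier. Cell viability followed 17.5 h later via 30-min CellTiter-Fluor fluorescence.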

[11] = qHTS assay to identify small molecule antagonists of the estrogen related receptor (ERR) signaling pathway (AID 1224819; note: nearly all actives have a fitted effect of over 50% in size)
Summary of the method: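 Compounds dissolved in DMSO were pin-transferred onto ERR cells that had been plated 6 h earlier, and cells were then incubated 18 h at 37 C; signal was luciferase luminescence via One-Glo.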

[12] = molecular target: Nuclear receptor subfamily 1 group I member 3 (Homo sapiens) (UniProt Q14994); experiment: qHTS assay to identify small molecule antagonists of the constitutive androstane receptor (CAR) signaling pathway (AID 1224838);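 note: HepG2 cells stably expressing hCAR with CYP2B6 luciferase reporter stimulated by CITCO; nearly all actives have a fitted effect of over 40% in size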
Summary of the method: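 Human hepatoma HepG2 cells expressing hCAR and a CYP2B6 promoter (2.2 kb) luciferase construct; compound titration (15 points) with 50 nM CITCO final, 24 h at 37 C/5% CO2; luminescence via ONE-Glo after 30 min at room temperature.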

[13] = molecular target: Nuclear receptor subfamily 1 group I member 3 (Homo sapiens) (UniProt Q14994); experiment: qHTS assay to identify small molecule agonists of the constitutive androstane receptor (CAR) signaling pathway (AID 1224839); note: nearly all actives have a fitted effect of over 15% in size
Summary of the method: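 Readout: firefly luciferase luminescence via ONE-Glo. System: HepG2 double-stable for hCAR and CYP2B6-2.2kb. Conditions: 15-point compound titration, PK11195 at 0.75 uM final, 24 h incubation.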
Potency is the fitted concentration of half-maximal effect; tags give direction and shape of the fitted curve or compound fluorescence and quenching.

Chain of UniProt Q14994 (Q14994 whole entry, looked up): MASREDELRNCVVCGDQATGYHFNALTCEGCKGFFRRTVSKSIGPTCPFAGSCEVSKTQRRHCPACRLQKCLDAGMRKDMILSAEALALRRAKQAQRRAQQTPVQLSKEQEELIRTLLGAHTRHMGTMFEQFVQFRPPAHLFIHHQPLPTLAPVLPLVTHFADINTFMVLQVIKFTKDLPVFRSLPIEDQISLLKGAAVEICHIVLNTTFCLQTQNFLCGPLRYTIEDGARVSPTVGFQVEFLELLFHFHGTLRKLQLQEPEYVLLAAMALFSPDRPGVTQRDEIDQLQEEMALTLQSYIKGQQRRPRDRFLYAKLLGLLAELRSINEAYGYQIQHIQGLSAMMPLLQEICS
Chain of UniProt P16473 (P16473 whole entry, looked up): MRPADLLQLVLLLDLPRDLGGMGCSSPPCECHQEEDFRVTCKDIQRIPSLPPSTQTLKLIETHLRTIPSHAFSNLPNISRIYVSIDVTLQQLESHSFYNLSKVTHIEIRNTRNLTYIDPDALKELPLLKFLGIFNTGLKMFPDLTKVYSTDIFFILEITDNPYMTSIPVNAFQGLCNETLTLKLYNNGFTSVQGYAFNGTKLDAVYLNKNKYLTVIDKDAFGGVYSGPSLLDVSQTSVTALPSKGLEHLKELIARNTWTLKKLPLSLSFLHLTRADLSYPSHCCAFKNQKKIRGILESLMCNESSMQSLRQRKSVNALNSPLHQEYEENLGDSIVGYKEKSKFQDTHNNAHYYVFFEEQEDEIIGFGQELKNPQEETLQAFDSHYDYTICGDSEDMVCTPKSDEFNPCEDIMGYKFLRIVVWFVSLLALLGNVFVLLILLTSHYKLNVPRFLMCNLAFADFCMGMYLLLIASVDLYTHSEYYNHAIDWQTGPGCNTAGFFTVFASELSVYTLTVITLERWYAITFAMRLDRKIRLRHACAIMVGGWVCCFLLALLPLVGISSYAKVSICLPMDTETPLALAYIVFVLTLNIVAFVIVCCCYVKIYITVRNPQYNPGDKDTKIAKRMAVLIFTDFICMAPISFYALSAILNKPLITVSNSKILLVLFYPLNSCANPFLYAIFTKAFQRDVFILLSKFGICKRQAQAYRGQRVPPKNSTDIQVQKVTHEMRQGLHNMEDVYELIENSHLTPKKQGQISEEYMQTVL

## CN(C)C(=S)SC(=S)N(C)C
[1]
  Potency: inconclusive: 250 nM [activator, single point] and inconclusive: 770 nM [inhibitor, full curve] and active: 668 nM
[2]
  Potency: inconclusive: 3.01 µM [cytotoxic, full curve, poor fit]

## CCCCCCCCOC(=O)c1cc(O)c(O)c(O)c1
[1]
  Potency: inconclusive: 0.611 µM [activator, partial curve]
[3]
  Potency: inconclusive: 68.6 µM [cytotoxic, partial curve, poor fit]
[4]
  Potency: inconclusive: 1.54 µM [falling, full curve, poor fit]

## CCN(CC)c1ccc2c(C)cc(=O)oc2c1
[1]
  activation: inconclusive: 4.06% [phenotype inactive] [at 94.8 µM]
[3]
  Potency: inconclusive: 30.9 µM [rising, partial curve] and inconclusive: 54.5 µM [rising, partial curve]
[5]
  Potency: inconclusive: 30.9 µM [rising, partial curve]

## Clc1ccc2c(c1)C(N1CCNCC1)=Nc1ccccc1O2
[6]
  Potency: inconclusive: 29.8 µM [cytotoxic, partial curve, poor fit]
[7]
  Potency: inconclusive: 54.5 µM [cytotoxic, single point]
[3]
  Potency: inconclusive: 77 µM [cytotoxic, partial curve, poor fit] and inconclusive: 33.5 µM [cytotoxic, single point]
[8]
  Potency: inconclusive: 61.1 µM [cytotoxic] and inconclusive: 29.8 µM [cytotoxic, single point]
[5]
  Potency: inconclusive: 26.6 µM [cytotoxic, partial curve]
[9]
  Potency: inactive

## CSc1ccc2c(c1)C(N1CCN(C)CC1)Cc1ccccc1S2 (configuration not stated)
[10]
  Potency: inconclusive: 31 µM [cytotoxic]
[6]
  Potency: inconclusive: 32.2 µM [cytotoxic]
[8]
  Potency: inconclusive: 18.8 µM [cytotoxic, partial curve]
[5]
  Potency: inconclusive: 33.5 µM [cytotoxic, single point]
[2]
  Potency: inconclusive: 26.8 µM [cytotoxic, single point]

## CN(C)CCCN1c2ccccc2Sc2ccc(Cl)cc21
[10]
  Potency: inconclusive: 28.7 µM [cytotoxic]
[11]
  Potency: inconclusive: 29.8 µM [inhibitor]
[6]
  Potency: inconclusive: 32.2 µM [cytotoxic]
[3]
  Potency: active: 48.6 µM and inconclusive: 29.8 µM [cytotoxic]
[8]
  Potency: inconclusive: 26.6 µM [cytotoxic, partial curve]
[12]
  Potency: inconclusive: 68.6 µM [inhibitor, single point] and inconclusive: 21.1 µM [inhibitor, partial curve, poor fit]
[9]
  Potency: inconclusive: 48.6 µM [inhibitor, partial curve]
[2]
  Potency: inconclusive: 15.1 µM [cytotoxic, partial curve]

## CCCCC(CC)COC(=O)c1ccc(N(C)C)cc1 (configuration not stated)
[1]
  Potency: inconclusive: 33.5 µM [activator, single point]
[13]
  Potency: inconclusive: 48.6 µM [activator, partial curve]

## CC1=C(/C=C/C(C)=C/C=C/C(C)=C\C=O)C(C)(C)CCC1
[1]
  Potency: active: 1.63 µM
[5]
  Potency: inconclusive: 57.9 µM [cytotoxic, partial curve, poor fit]
[9]
  Potency: active: 10.3 µM

## CCCCCCCCCCCCN1CCCC1=O
[1]
  Potency: inconclusive: 54.5 µM [activator, partial curve]
[13]
  Potency: active: 54.5 µM
[9]
  Potency: inconclusive: 61.1 µM [inhibitor, partial curve]
[2]
  Potency: inconclusive: 54.9 µM [cytotoxic, single point]

## Cc1ccc(S(=O)(=O)Oc2ccc(N=Nc3ccc(-c4ccc(N=Nc5c(O)ccc6cc(S(=O)(=O)O)cc(S(=O)(=O)O)c56)c(C)c4)cc3C)cc2)cc1
[1]
  Potency: inconclusive: 68.9 µM [activator, partial curve, poor fit]
[3]
  Potency: active: 27.4 µM and active: 20 µM
[5]
  Potency: active: 19.4 µM and active: 20 µM
[9]
  Potency: inconclusive: 61.4 µM [inhibitor, partial curve, poor fit]
  activation: inconclusive: -20.6% [at 42.5 µM]
[2]
  Potency: inconclusive: 61.9 µM [cytotoxic, single point]

## CCOC(=O)C1=C(C)NC(C)=C(C(=O)OCC)C1c1ccccc1/C=C/C(=O)OC(C)(C)C
[1]
  Potency: inconclusive: 26.6 µM [inhibitor]
[8]
  Potency: inconclusive: 33.5 µM [cytotoxic]
[13]
  Potency: inconclusive: 26.6 µM [activator, partial curve]
[5]
  Potency: inconclusive: 29.8 µM [cytotoxic]
[2]
  Potency: inconclusive: 26.8 µM [cytotoxic, single point]
